PubChem BioAssay AID445 (National Center for Advancing Translational Sciences (NCATS), 2006)
Values joined by “and” are separate entries in the source; they are usually repeats but may differ in a detail not shown here. Equal values may be shown once. In all, about 110,000 compounds went through this assay and about 40 (0.04%) were called active. The inconclusive results got no clear call from the source; some entries with a clear call stand among them for comparison. The call rests on the fitted dose curve; in most records, active means well fitted curve in the direction sought with a large enough effect in the signal ratio (not every such curve was filed as active); inconclusive means small, poorly fitted or top-dose-only effect, or a change in a side signal; inactive means flat fitted curve, though single readings scatter; the % refers to the signal ratio. A potency beside an inconclusive call is a rough fit, not a confirmed value.

test: IkB Signaling; conditions: ABC-DLBCL IkBa-CBG/CBR dual luciferase ratio (green luciferase fused to IkBa over red control in OCI-Ly3 lymphoma cells), 4 h; IkBa stabilization activation: at 57.1 µM (top of the series), scaled: untreated 0%, proteasome inhibitor 100% unless noted;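 on IkBa stabilization activation: 0% = basal untreated cells and 100% = reference inhibitor full response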
Outline: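 Luminescence ratio of IκBα-fused green versus native red beetle luciferase in OCI-Ly3 cells, 4 h post-doxycycline with compound; red signal alone, scaled from basal (0%) to zero light (-100%), flagged nonspecific or cytotoxic effects.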
Potency means the concentration at half of the fitted maximal effect.

SMILES	IkBa stabilization activation	Potency
CCOc1ccc(Br)c(C2(O)CC(C)N(C)CC2C)c1 (stereo not drawn)	inconclusive: 10% [signal inhibitor]	–
CC(C)(COCC1CO1)COCC1CO1 (stereo not drawn)	inactive	–
CN(C=O)CP(=O)(O)CN(C)C=O	inactive	–
CCN1CCN(C(=O)COc2ccc(S(=O)(=O)N(C)Cc3ccccc3)cc2)CC1	inconclusive: 1.74% [signal inhibitor]	–
Clc1ccc(C(c2ccc(Cl)cc2)C(Cl)Cl)cc1	inactive	–
Oc1c(Cl)c(Cl)cc(Cl)c1Cl	inconclusive: 2.61% [signal inhibitor]	–
CNC(C(=O)c1ccccc1)C(OC)c1ccccc1 (stereo not drawn)	inactive	–
CCCCCCCCCCCCCC(=O)O[C@H]1[C@@H](C)[C@@]2(O)[C@@H](C=C(CO)C[C@]3(O)C(=O)C(C)=C[C@@H]23)C2C(C)(C)[C@]21OC(C)=O (stereo partly drawn)	–	inconclusive: 63.1 µM [signal activator, partial curve, poor fit]
Ic1ccccc1CN[C@@H]1C2CCN(CC2)[C@H]1C(c1ccccc1)c1ccccc1	inactive	–
CCC(=Nc1ccc2c(c1)CCC2)c1c(O)n(C2CCCCC2)c(=O)[nH]c1=O	inactive	–
COc1ccccc1-n1c(/C=C/c2ccccc2)nc2ccccc2c1=O	inconclusive: 4.06% [signal inhibitor]	–
COc1cc2c(cc1OC)-c1c(O)c(OC)cc3c1[C@@H](C2)N(C)CC3	inactive: 1.38% [at 11.4 µM, scaled: untreated 0%, proteasome inhibitor 100%]	–
CC(C)(C)[C@@]1(O)C[C@@H]2OC(=O)C[C@@]23C(=O)O[C@H]2OC(=O)[C@@H](O)[C@]231	inactive: 0.506% [at 11.4 µM, scaled: untreated 0%, proteasome inhibitor 100%]	–
COc1ccc(-c2nn3c(=O)cc(CN4CCN(C(=O)COc5ccc(F)cc5)CC4)nc3s2)cc1	inconclusive: 1.77% [signal inhibitor]	–
Cn1c(=O)c2[nH]cnc2n(C)c1=O.[CH2-][C@H](Cc1cccc2cc(C(=O)O)c(=O)oc12)OC.[Hg].[OH-]	inactive: 2.44% [at 11.4 µM, scaled: untreated 0%, proteasome inhibitor 100%]	–
Nc1ccccc1O.O.O=C(O)[C@H]1[O][Sb][O][C@H]1C(=O)O	–	inconclusive: 3.98 µM [rising, partial curve]
Cc1oc(-c2ccc(Cl)cc2)nc1CN1C(=O)CN=C(c2ccccc2)c2cc(Cl)ccc21	inconclusive: 3.03% [signal inhibitor]	–
CC[C@H](CO)NC(=O)[C@H]1C=C2c3cccc4[nH]cc(c34)C[C@H]2N(C)C1	inactive: 2.14% [at 11.4 µM, scaled: untreated 0%, proteasome inhibitor 100%]	–
CN1CCc2cc3c(cc2[C@@H]1[C@H]1OC(=O)c2c1ccc1c2OCO1)OCO3	inactive: -0.914% [at 11.4 µM, scaled: untreated 0%, proteasome inhibitor 100%] and inactive: -0.22% [at 11.4 µM, scaled: untreated 0%, proteasome inhibitor 100%]	–
Cc1ccc(NC(=O)CN2C(=O)CN=C(c3ccccc3)c3ccccc32)c(C)c1	inactive	–
O=c1[nH]c(=O)n(Cc2ccco2)c(O)c1C=NC1CC1	inactive	–

SMILES	IkBa stabilization activation	Potency
Cc1ccccc1C1=NCC(=O)N(CC(=O)NCc2ccco2)c2sc3c(c21)CCCC3	inconclusive: 6.38% [signal inhibitor]	–
O=C(c1ccc2c(c1)N(Cc1ccc(F)cc1Cl)C(=O)c1ccccc1S2)N1CCC2(CC1)OCCO2	inconclusive: 10.7% [signal inhibitor]	–
CCCCCCC(C)(C)c1ccc([C@@H]2C[C@H](O)CC[C@@H]2CCCO)c(O)c1	inconclusive: 0.447% [signal inhibitor]	–
N#Cc1ccccc1Cn1cc(C(=O)c2ccco2)c2ccccc21	inactive	–
O=C(c1ccc2c(=O)n(Cc3ccc4c(c3)OCO4)c(=S)[nH]c2c1)N1CCC2(CC1)OCCO2	inactive	–
CN1C[C@H](C(=O)N[C@]2(C)O[C@@]3(O)[C@@H]4CCCN4C(=O)[C@H](Cc4ccccc4)N3C2=O)C=C2c3cccc4[nH]cc(c34)C[C@H]21	inconclusive: 1.04% [signal inhibitor]	–
O=c1[nH]c2c(c(=O)n1C1CCCCC1)CCC2	inactive	–
Nc1c(C(=O)Nc2ccc(OC(F)(F)F)cc2)sc2nc3c(cc12)N1CCC3CC1	inconclusive: 6.62% [signal inhibitor]	–
NNCc1cccc(O)c1	inactive	–
COc1ccc(CN2CCN(C(=O)Cc3ccccc3)CC2)c(OC)c1	inactive	–
CCCCCCn1c(O)c(C=NC2CCCCC2N)c(=O)[nH]c1=O (stereo not drawn)	inactive	–
C[C@@H]1O[C@@H](O[C@H]2C[C@@H](O)[C@]3(CO)[C@@H]4[C@@H](O)C[C@]5(C)[C@H](C6=CC(=O)OC6)CC[C@@]5(O)[C@H]4CC[C@@]3(O)C2)[C@H](O)[C@H](O)[C@@H]1O	inactive	–
CCCCCC[C@H]1C(=O)O[C@@H](C)[C@H](NC(=O)c2cccc(NC=O)c2O)C(=O)O[C@@H](C)[C@@H]1OC(=O)CC(C)C	inactive: 5.99% [at 11.4 µM, scaled: untreated 0%, proteasome inhibitor 100%]	–
O=C1/C(=C\c2ccccc2)C[C@@]2(O)[C@H]3Cc4ccc(O)c5c4[C@@]2(CCN3CC2CC2)[C@@H]1O5	inconclusive: -0.403% [signal inhibitor]	–
CCN(CC)C(=O)N[C@@H]1C=C2c3cccc4[nH]cc(c34)C[C@@H]2N(C)C1	inactive	–
C[C@@]12CC[C@H]3[C@H](CCC4=CC(=O)CC[C@H]43)[C@H]1CC[C@H]2OC1(O)C(=O)c2ccccc2C1=O	inactive: -0.13% [at 11.4 µM, scaled: untreated 0%, proteasome inhibitor 100%]	–
CN[C@@H](C)[C@@H](O)c1ccccc1	–	inconclusive: 15.8 µM [rising, partial curve]
C[C@@]12CC[C@H]3[C@@H](CCC4=C(O)C(=O)CC[C@]43C)[C@H]1CCC2=O	inactive	–
O=C(Nc1ccc2c(c1)OCCO2)c1cccn(Cc2cccc([N+](=O)[O-])c2)c1=O	inconclusive: 15.2% [signal inhibitor]	–
C=CCN1C(=O)C2(C(C(=O)OCC)=C(N)Oc3c2c(=O)oc2ccccc32)c2ccccc21 (stereo not drawn)	inconclusive: 16.2% [signal inhibitor]	–
O=C(O)C1=CCCN(CCOC(c2ccc(C(F)(F)F)cc2)c2ccc(C(F)(F)F)cc2)C1	inactive	–

SMILES	IkBa stabilization activation	Potency
O=C(CCl)c1ccc(Cl)cc1Cl	–	inconclusive: 5.01 µM [rising, partial curve]
COC[C@@H]1OC(=O)c2coc3c2[C@]1(C)C1=C(C3=O)[C@H]2CCC(=O)[C@]2(C)C[C@@H]1OC(C)=O	inconclusive: 4.64% [signal activator]	–
CN1CCN(c2csc3ccc(F)cc3c2=O)CC1	inconclusive: 4.11% [signal inhibitor]	–
Cc1cccc(-c2nc3ccccc3c(=O)n2-n2cccc2)c1	inactive	–
CCn1c(C)c(C(=O)O)c2cc(OC)ccc21	inactive	–
CCN1C[C@@]2(COC(=O)c3ccccc3N3C(=O)C[C@H](C)C3=O)CC[C@H](OC)[C@@]34[C@@H]5CC6[C@@H](OC)C[C@@](O)([C@H]5[C@H]6OC)C(O)([C@@H]13)[C@@H](OC)[C@H]24	inactive: 0.217% [at 11.4 µM, scaled: untreated 0%, proteasome inhibitor 100%]	–
COP(=O)(OC)OC=C(Cl)Cl	inconclusive: 5.12% [signal activator]	–
CC(=O)c1c(O)c(C)c(O)c(Cc2c(O)c3c(c(C(=O)/C=C\c4ccccc4)c2O)OC(C)(C)C=C3)c1O	inconclusive: 1.08% [signal inhibitor]	–
O=[N+]([O-])c1cccc2ccccc12	inactive	–
CCN[C@]1(c2cccs2)CCCCC1=O	inactive	–
Cc1nc2cc(F)ccc2n1C1CCN(Cc2nnnn2CCc2ccccc2)CC1	inconclusive: 1.09% [signal inhibitor]	–
CC(=O)N1C[C@@H]2C[C@H](C1)c1cccc(=O)n1C2	inactive: 2.45% [at 11.4 µM, scaled: untreated 0%, proteasome inhibitor 100%]	–
N#CC(C#N)=Cc1ccc(O)c(O)c1	inconclusive: 2.37% [signal inhibitor]	–
Cc1ccc(-n2c(/C=C/c3cc(Br)cs3)nc3ccccc3c2=O)cc1C	inconclusive: 4.28% [signal inhibitor]	–
CC(=O)N(C1=NCCCS1)c1ccc(F)cc1	inactive	–
C=C(C)[C@H]1Cc2c(ccc3c2O[C@H]2COc4cc(OC)c(OC)cc4[C@@H]2C3=O)O1	–	inconclusive: 15.8 µM [rising, partial curve]
CS(=O)(=O)Nc1ccc(Cc2noc(-c3ccc4[nH]cc(CCN)c4c3)n2)cc1	inactive	–
COc1cc2c(cc1OC)[C@@]13CCN4C=C5CCO[C@H]6CC(=O)N2[C@@H]1[C@@H]6[C@H]5C[C@H]43	inactive: 0.809% [at 11.4 µM, scaled: untreated 0%, proteasome inhibitor 100%]	–
CCC(=NCc1cccnc1)c1c(O)n(Cc2ccccc2)c(=O)[nH]c1=O	inactive	–
COCCCn1c(N)c(C(=O)NCCC(C)C)c2nc3ccccc3nc21	inconclusive: 2.04% [signal inhibitor]	–
CC[C@]1(OC(=O)CN)C(=O)OCc2c1cc1n(c2=O)Cc2cc3ccccc3nc2-1	inconclusive: -4.69% [signal inhibitor] [at 11.4 µM, scaled: untreated 0%, proteasome inhibitor 100%]	–
